Laboratory results reported in PubChem BioAssay AID686979 (National Center for Advancing Translational Sciences (NCATS), 2013).
Several values for one entry are separate records, joined by “and”; a condition that tells them apart may be missing. Equal entries are not always repeated. Out of some 420,000 compounds screened, about 50,000 (12%) were called active. Inconclusive results, whose numbers are uncertain, are shown with a selection of clear calls. Calls come from the whole dose curve; as a rule, active = well fitted inhibition curve with a large enough effect; inconclusive = small, poorly fitted or top-dose-only effect; inactive = flat fitted curve, though single readings scatter. Potencies of inconclusive entries are doubtful fits and often do not repeat.

Assay: qHTS for Inhibitors of human tyrosyl-DNA phosphodiesterase 1 (TDP1): qHTS in cells in presence of CPT; note: nearly all actives have a fitted effect of over 55% in size
Settings: chicken DT40 Tdp1-/-;hTDP1 cells + 20 nM CPT, ATP luminescence, 48 h; activity change, negative = growth inhibition: at 46.2 µM (top of the series)
Method in brief: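 Chicken DT40 Tdp1-/- cells complemented with human TDP1, 400 cells/well, exposed to compounds plus 20 nM camptothecin for at least 48 h at 37 C; viability read as ATP content by CellTiter-Glo luminescence.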
% is set by controls: 0 for no effect and ±100 for the full control effect; potency is the fitted concentration of half-maximal effect; tags give direction and shape of the fitted curve.

Row | Compound | Potency | activity change, negative = growth inhibition
1 | CCOc1ccc(CCNC(=O)c2nn(C)c3c2CS(=O)(=O)c2ccccc2-3)cc1 | inconclusive: 6.51 µM [inhibitor, single point] | –
2 | S=c1[nH]nc(-c2ccncc2)n1/N=C/c1cn(-c2ccccc2)nc1-c1ccccc1 | inconclusive: 23.1 µM [inhibitor, single point] | –
3 | COC(=O)c1c(C)sc(-c2c(-c3ccc4c(c3)OCCO4)[nH]c3c2c(=O)n(C)c(=O)n3C)c1O | inactive | –
4 | Cc1ccc(OCCn2cc(C(=S)N3CCCC3)c3ccccc32)cc1C | active: 8.2 µM | –
5 | O=C(Nc1ccc(N2CCCCC2)cc1)c1ccccc1 | inconclusive: 5.8 µM [inhibitor, partial curve] | –
6 | COc1ccc(OCC(N)=O)cc1 | inactive | –
7 | CC(=O)NC(Cc1ccc(F)c(F)c1)C(=O)NC1CCN(C(=O)c2ccc(Cl)cc2)CC1 (stereo unspecified) | inactive | –
8 | Nc1ccc(C(=O)N2CCCC2)cc1 | inactive | –
9 | O=C(Nc1cccc(-c2cc3ccccc3oc2=O)c1)c1ccc(Br)o1 | inconclusive: 25.9 µM [inhibitor, single point] | –
10 | O=C(CC1c2ccccc2Oc2ccccc21)Nc1ccccc1C(F)(F)F | inactive | –
11 | Cc1ccc(C)c(C(=O)CCC(=O)NCc2ccc(Cl)cc2)c1 | inconclusive: 18.4 µM [inhibitor, single point] | –
12 | CN(c1ccccc1)S(=O)(=O)c1ccc(Cl)c(C(=O)NCC(c2ccco2)N2CCCC2)c1 (stereo unspecified) | active: 13 µM | –
13 | COc1cccc(NC(=O)CN2C(=O)NC(C)(c3ccc(C)cc3)C2=O)c1 (stereo unspecified) | inactive | –
14 | CCC(C)NC(=O)c1cnn(-c2ccc(Cl)cc2)c1C1CCN(C(=O)OC(C)(C)C)CC1 (stereo unspecified) | inconclusive: 29.1 µM [inhibitor, single point] | –
15 | CC1(C(=O)Nc2ccc(Cl)c(Cl)c2)CCN1C(=O)CC1CCCC1 (stereo unspecified) | active: 25.9 µM | –
16 | C=CCCC(=O)Nc1nc(C)c(-c2csc(Nc3ccc(Cl)cc3Cl)n2)s1 | inconclusive: 29.1 µM [inhibitor, single point] | –
17 | CC1=C(C)CC2C(=O)N(c3cccc4ccccc34)C(=O)C2C1 (stereo unspecified) | active: 18.4 µM | –
18 | COc1ccc(C(=O)NC(C)c2csc(C)n2)cc1OC1CCN(C(C)=O)CC1 (stereo unspecified) | inactive | –
19 | CCOc1ccc(CCNC(=O)C2CCCN(c3ncnc4c3nc3n4CCCCC3)C2)cc1 (stereo unspecified) | inconclusive: 23.1 µM [inhibitor, single point] | –
20 | Cc1ccc2c(c1)cc(C(=O)Nc1ccc(F)cc1F)n2C | inconclusive: 10.3 µM [inhibitor, partial curve] | –
21 | CC(=O)Nc1ccc(S(=O)(=O)NCCC(=O)OCc2nc(N)nc(Nc3ccccc3C)n2)cc1 | inactive | –
22 | CCOC(=O)c1c(NC(=O)C(=O)N/N=C/c2ccccc2OC)sc2c1CCCCC2 | inconclusive: 29.1 µM [inhibitor, single point] | –
23 | O=C(NCC(=O)N(Cc1ccco1)C(C(=O)NC1CCCCC1)c1cccnc1)c1ccco1 (stereo unspecified) | inactive | –
24 | Cc1ccn2c(Nc3ccc4c(c3)OCCO4)c(-c3ccc(Cl)s3)nc2c1 | inconclusive: 25.9 µM [inhibitor, single point] | –

Row | Compound | Potency | activity change, negative = growth inhibition
25 | CC(C)c1ccc(OCC(=O)NCc2n[nH]c(=O)c3ccccc23)cc1 | inconclusive: 10.3 µM [inhibitor, single point] | –
26 | CCCCCC(=O)N(O)C1CC(=O)N(c2ccccc2)C1=O (stereo unspecified) | active: 3.26 µM | –
27 | O=C(Cc1cc(=O)[nH][nH]1)N/N=C/c1c(F)cccc1Cl | inconclusive: 32.6 µM [inhibitor, partial curve, poor fit] | –
28 | Cc1cccc(OCc2nc3ccccc3c(=O)n2N)c1 | inconclusive: 29.1 µM [inhibitor, single point] | –
29 | CCCCNC(=S)N/N=C/C1=CCC2CC1C2(C)C (stereo unspecified) | inconclusive: 23.1 µM [inhibitor, single point] | –
30 | N#C/C(=C/c1ccc(N2CCOCC2)c([N+](=O)[O-])c1)C(N)=O | inactive | –
31 | CN(C)C1CN(Cc2cn(Cc3ccccc3)nn2)S(=O)(=O)C1 (stereo unspecified) | inactive | –
32 | Cc1cc(N(C)C(=O)c2ccc3c(c2)S(=O)(=O)c2cc(Cl)ccc2C3=O)c(C(F)(F)F)o1 | inactive | –
33 | COc1ccccc1/C=C/C=N\N1CCN(Cc2ccccc2Cl)CC1 | inconclusive: 20.6 µM [inhibitor, single point] | –
34 | O=C(Nc1ccc([N+](=O)[O-])cc1)Nc1ccon1 | active: 0.411 µM | –
35 | Cc1ccc(NC(=O)c2ccc(OCC3CCCO3)cc2)cc1Cl (stereo unspecified) | inconclusive: 23.1 µM [inhibitor, partial curve] | –
36 | Cn1c(Cc2nc3ccccc3n2C)nc2ccccc21 | inconclusive: 18.4 µM [inhibitor, single point] | –
37 | Cc1ccc(OCCSc2ncccn2)c(C)c1 | inactive | –
38 | COc1cc(NC(=O)CSc2nc3[nH]ncc3c(=O)n2-c2ccccc2)cc(OC)c1OC | inconclusive: 20.6 µM [inhibitor, single point] | –
39 | Cn1c(=O)c2cc(C(=O)N3CCN(c4ccc(Cl)cc4)CC3)sc2c2ccccc21 | inconclusive: 2.06 µM [inhibitor, partial curve] | –
40 | Cc1ccc(C(=O)N(Cc2ccc(N(C)C)cc2)Cc2ccco2)cc1 | inconclusive: 23.1 µM [inhibitor, single point] | –
41 | O=S(=O)(Cc1ccccc1)C(CCCc1ccccc1)S(=O)(=O)Cc1ccccc1 | active: 23.1 µM | –
42 | O=C(CN1CCCCC1)Nc1nc(-c2ccc(Cl)cc2)cs1 | inconclusive: 11.6 µM [inhibitor, partial curve] | –
43 | CCC(C)[C@H](NC(=O)N1CCn2c1nc1ccccc12)C(=O)NCCc1ccccc1 (stereo partly specified) | active: 20.6 µM | –
44 | NC(=O)CC(NC(=O)c1ccccc1)c1ccc(N2CCC(Br)CC2)c([N+](=O)[O-])c1 (stereo unspecified) | active: 18.4 µM | –
45 | CC1=Nc2ccccc2N=C(NC(=O)CSC(=S)N2CCN(C)CC2)C1c1ccccc1 (stereo unspecified) | inconclusive: 18.4 µM [inhibitor, single point] | –
46 | CCCCNC(=S)Nc1ccc(-c2nc3ccc(C)cc3s2)cc1 | inconclusive: 20.6 µM [inhibitor, single point] | –
47 | CCN(CC)c1ccc(/C=N/NC(=O)c2cccc(S(=O)(=O)Nc3ccccc3OC)c2)cc1 | inactive | –
48 | COc1ccc(Nc2nc3[nH]c(=O)cc(O)c3s2)cc1 | active: 11.6 µM | –

Row | Compound | Potency | activity change, negative = growth inhibition
49 | CCN(CC)c1nn2c(=O)c(C(=O)NCc3ccc(F)cc3)cnc2s1 | inconclusive: 29.1 µM [inhibitor, single point] | –
50 | CCCn1c2ccccc2c2cnn(CC(=O)NCCc3ccc(OC)cc3OC)c(=O)c21 | inconclusive: 23.1 µM [inhibitor, single point] | –
51 | CC(C)C(=O)Nc1nc(-c2ccc(S(=O)(=O)N3CCOCC3)cc2)cs1 | inconclusive: 25.9 µM [inhibitor, single point] | –
52 | CN(N)c1nc(-c2ccccc2)cc(-c2ccccc2)n1 | inconclusive: 1.46 µM [inhibitor, full curve] | –
53 | COC(=O)[C@@]12C[C@@H](CC(=O)NCCC(C)C)C(=O)N(Cc3ccc4c(c3)OCO4)C1=CCC(C)(C)C2 | inconclusive: 23.1 µM [inhibitor, single point] | –
54 | O=C(NS(=O)(=O)Oc1ccccc1F)OC[C@@H]1CCCN2CCCCC12 (stereo partly specified) | inactive | –
55 | Oc1ccc(-c2[nH]nc(-c3ccccc3)c2-c2nc3ccccc3[nH]2)cc1 | inconclusive: 29.1 µM [inhibitor, single point] | –
56 | CCNC(=O)Cc1ccc(NC(=O)N2CCCCc3ccccc32)cc1 | inactive | –
57 | COc1ccc(CCNC(=O)C2CCN(S(=O)(=O)c3cccs3)CC2)cc1OC | inactive | –
58 | O=C(/C=C/c1ccc(-c2ccccc2[N+](=O)[O-])o1)c1ccco1 | inconclusive: 18.4 µM [inhibitor, single point] | –
59 | CCOc1ccc2ccccc2c1CNCCc1ccc(S(N)(=O)=O)cc1 | inactive | –
60 | O=C(N/N=C/c1ccc(Cl)cc1)c1nc2ccc([N+](=O)[O-])cc2c(=O)[nH]1 | inconclusive: 25.9 µM [inhibitor, single point] | –
61 | OCCCNc1nc(-c2ccccc2)c2cc(Br)ccc2n1 | inconclusive: 20.6 µM [inhibitor, single point] | –
62 | COc1ccc(OC)c(NC(=O)c2cnc(Nc3ccccc3OC)c3ccccc23)c1 | active: 5.17 µM | –
63 | CC(NCc1ccccc1Cl)C(=O)Nc1ccc(C#N)cc1 (stereo unspecified) | inactive | –
64 | O=C(c1ccc(OCCN2CCCCC2)cc1)c1c(-c2ccc(O)cc2)sc2cc(O)ccc12 | inactive and inconclusive: 23.7 µM [inhibitor, single point] and inconclusive: 18.4 µM [inhibitor, single point] | –
65 | CCC1C(=O)NCCN1C(=O)c1ccc2nc(Cc3cccc(Cl)c3)oc2c1 (stereo unspecified) | inactive | –
66 | CN(Cc1ccccc1)c1nc(-c2ccc([N+](=O)[O-])cc2)nc2ccccc12 | active: 18.4 µM | –
67 | COc1ccc(S(=O)(=O)N2CCOC2CNC(=O)C(=O)NCc2ccc3c(c2)OCO3)cc1 (stereo unspecified) | inconclusive: 18.4 µM [inhibitor, partial curve] | –
68 | Cc1ccc(C)c(C(=O)OCC(=O)Nc2cccc(S(=O)(=O)NC3=NCCCCC3)c2)c1 | inconclusive: 18.4 µM [inhibitor, partial curve] | –
69 | CCOCC(=O)Nc1c(C(=O)N2CCN(c3ncccn3)CC2)oc2ccccc12 | inconclusive: 29.1 µM [inhibitor, single point] | –
70 | Cc1c(NC(=O)CSc2nc(-c3ccco3)cc(C(F)(F)F)n2)c(=O)n(-c2ccccc2)n1C | – | inconclusive: -30.1% [inhibitor]
71 | COc1cc(S(=O)(=O)N2CCC(c3nc4ccccc4s3)CC2)ccc1S(=O)(=O)N1CC(C)CC(C)C1 (stereo unspecified) | inconclusive: 20.6 µM [inhibitor, single point] | –
